Whole data set: some 5,400 compounds, median “IFI” near 2, cut for the highest 2% near 22. The list shows a part of the results.
Assay: NOVARTIS: Inhibition Frequency Index (IFI) - the number of HTS assays where a compound showed > 50% inhibition/induction, expressed as a percentage of the number of assays in which the compound was tested.
Format: functional
With CC(=O)Nc1ccc(C(=O)N2CCC(Oc3cccc(CN(C)Cc4cccc5ccccc45)c3)CC2)cc1 the IFI was 2.94%.
Work on CC[n+]1c(/C=C/C=C2\N(C)c3ccccc3C2(C)C)n(-c2ccccc2)c2cc(Cl)ccc21 yielded an IFI of 33.3%.
With CCOC(=O)c1c(Cl)nnc(-c2ccccc2)c1-c1ccccc1 the IFI was 0%.
In the case of CCCCNCCOCCOc1ccc(Br)cc1, the IFI is reported as 0%.
In the case of Cc1cccc2cc(CNC34CC5CC(CC(C5)C3)C4)c(N3CCC(N4CCC(O)CC4)CC3)nc12, the IFI is reported as 2.91%.
Compound Cc1cc2cc3c(cc2c(C)n1)c1ccccc1n3C has an IFI of 15.4%.
CCC(Sc1nnc(-c2ccc(C)cc2)c(-c2ccc(C)cc2)n1)C(=O)NCCOC (stereo not drawn) showed an IFI of 0%.
Work on CCN1CC=C2C(C#N)=C(N)C(C#N)(C#N)C(c3ccc(C)s3)C2C1 (stereo not drawn) yielded an IFI of 0%.
Compound COc1cc2nc(NCC3CCCO3)n3nc(-c4ccccc4)nc3c2cc1OC (stereo not drawn) has an IFI of 2.27%.
With COc1ccc(-c2cc(C(=O)NCc3cccnc3)no2)cc1OC the IFI was 0%.
With CCN1/C(=C/C=C/c2oc3ccc(-c4ccccc4)cc3[n+]2CC)Oc2ccc(-c3ccccc3)cc21 the IFI was 15.4%.
Work on O=[N+]([O-])c1cc(C(F)(F)F)cc([N+](=O)[O-])c1Sc1cccc2cccnc12 yielded an IFI of 14.3%.
For COc1ccc(C2CC3=NC(C)=C(C(=O)OC(C)C)C(c4ccccc4OC)C3=C(O)C2)cc1OC (stereo not drawn), the IFI was 3.49%.
Work on Oc1ccccc1CN1CCN(C(c2ccccc2)c2ccccc2)CC1 yielded an IFI of 1.82%.
CC(C)CN1C(=O)c2ccccc2C(C(=O)Nc2ccc(C(C)C)cc2)C1c1cccs1 (stereo not drawn) showed an IFI of 6.06%.
For O=C(CC1N=C2c3ccccc3N=C(SCc3cccc(F)c3)N2C1=O)NCc1cccs1 (stereo not drawn), the IFI was 14.3%.
Cc1cc(N2CCN(Cc3ccccc3)CC2)n2c(nc3ccccc32)c1C#N gave an IFI of 4.62%.
Compound CCOc1cccc2oc(=O)c(C(=O)Nc3cc(C(C)(C)C)on3)cc12 has an IFI of 0%.
COc1ccc2[nH]c3c(NCCN4CCCCC4)ncnc3c2c1 gave an IFI of 9.76%.
Work on CCCN(CC1CC1)C(=O)C1CCCN(c2cccc3c2C(=O)N(Cc2cc(OC)c(OC)c(OC)c2)C3=O)C1 (stereo not drawn) yielded an IFI of 5.46%.
For COc1cc(C2CC(=O)NC3=C2C(=O)CC(c2ccccc2Cl)C3)ccc1O (stereo not drawn), the IFI was 0%.
Compound O=C1c2ccccc2-c2nnc(-c3ccc(Br)cc3)cc21 has an IFI of 5.88%.
Compound O=C(c1ccccc1)N1CCN(c2ccccc2NC(=O)C(Cl)(Cl)Cl)CC1 has an IFI of 0%.
With CCCCc1c(C)nc2ccc(Br)cc2c1O the IFI was 0%.
Compound Cc1nc2ccccc2c(O)c1CC=C(Cl)Cl has an IFI of 1.96%.
O=C(NCc1ccccc1)c1cnc(NCCCn2ccnc2)nc1Nc1ccccc1 gave an IFI of 0.971%.
With Cc1cc(Nc2ccc(Cl)c(Cl)c2)n2ncnc2n1 the IFI was 0%.
In the case of Cc1cc(F)ccc1NC(=O)C(C)n1c2ccccc2c2nc(=O)cc(C)n21 (stereo not drawn), the IFI is reported as 0%.

Reference: ChEMBL document CHEMBL1156829
